The source of these data is the supplement of paper PMC4604168 (melanoma cell lines).

Some of the results follow. Repeats are few or missing, and single values can be far off.
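Also: cells treated in 1,536-well plates, then fixed and DAPI-stained, with nuclei counted from automated high-throughput microscope images.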

The assay deals with COLO792. Kind of assay: cell count relative to DMSO control; melanoma cells; higher = more viable cells. Particulars: library dose: standard library concentration; 72 h; first compound 2 µM.
Compound `C[C@@H](N)c1ccc(C(=O)Nc2ccnc3[nH]ccc23)cc1` + CN(NC(=O)CC(=O)NN(C)C(=S)c1ccccc1)C(=S)c1ccccc1 [STA4783] (partner dose 0.03 µM) returned a cell count of 18.8%. To `CCCCCCCCCCCCCCCCCCOP(=O)([O-])OC1CC[N+](C)(C)CC1` [Perifosine] + COc1cc2ncnc(Nc3ccc(Oc4ccccc4)cc3)c2cc1OC [SrcI1] (partner dose 10 µM) belongs 65.1%; to `CCCCCCCCCCCCCCCCCCOP(=O)([O-])OC1CC[N+](C)(C)CC1` [Perifosine] + Cc1cc(Nc2cc(N3CCN(C)CC3)nc(/C=C/c3ccccc3)n2)n[nH]1 [ENMD2076] (partner dose 0.2 µM), 99.1%; to `C[C@@H](N)c1ccc(C(=O)Nc2ccnc3[nH]ccc23)cc1` + O=c1cc(-c2cccc3c2Sc2ccccc2S3)oc(N2CCOCC2)c1 [KU55933] (partner dose 5 µM), 80.6%. Compound `Cn1sc(=O)n(Cc2ccccc2)c1=O` + O=c1cc(-c2cccc3c2Sc2ccccc2S3)oc(N2CCOCC2)c1 [KU55933] (partner dose 5 µM) displayed a cell count of 115%.

In turn, `CCCCCCCCCCCCCCCCCCOP(=O)([O-])OC1CC[N+](C)(C)CC1` [Perifosine] + O=C1NC(=O)/C(=C/c2ccc(-c3ccc(F)cc3O)o2)S1 [AS252424] (partner dose 5 µM) showed a cell count of 87.8%. For the compound `Cn1sc(=O)n(Cc2ccccc2)c1=O` + Oc1cc(-c2nc(-c3ccccc3)[nH]c2-c2ccncc2)ccc1Cl [L779450] (partner dose 1 µM), the cell count worked out at 103%. Consider `Cn1sc(=O)n(Cc2ccccc2)c1=O` + Oc1nc(-c2ccc(C(F)(F)F)cc2)nc2c1CSCC2 [XAV939] (partner dose 10 µM), for which the cell count was determined as 77.7%. The result for `Cn1sc(=O)n(Cc2ccccc2)c1=O` + COc1ccc(C2=N[C@@H](c3ccc(Cl)cc3)[C@@H](c3ccc(Cl)cc3)N2C(=O)N2CCNC(=O)C2)c(OC(C)C)c1 [Nutlin-3] (partner dose 0.5 µM) reads 84.9%; that for `Cn1sc(=O)n(Cc2ccccc2)c1=O` + CCN(CC)CCCCNc1ncc2cc(-c3cc(OC)cc(OC)c3)c(NC(=O)NC(C)(C)C)nc2n1 [PD173074] (partner dose 0.5 µM), 93.6%; that for `C[C@@H](N)c1ccc(C(=O)Nc2ccnc3[nH]ccc23)cc1` + NC(=O)c1ccc(N(C(N)=O)c2c(F)cccc2F)nc1-c1ccc(F)cc1F [VX702] (partner dose 2 µM), 97.4%. In the case of `CCCCCCCCCCCCCCCCCCOP(=O)([O-])OC1CC[N+](C)(C)CC1` [Perifosine] + Oc1cc(-c2nc(-c3ccccc3)[nH]c2-c2ccncc2)ccc1Cl [L779450] (partner dose 1 µM), the cell count amounted to 99.7%. The result for `Cn1sc(=O)n(Cc2ccccc2)c1=O` + COc1ccc2c(c1)CCC1C2CCC2(C)C(NCCCCCCN3C(=O)C=CC3=O)CCC12 [U73122] (partner dose 2 µM) reads 81.1%; that for `CCCCCCCCCCCCCCCCCCOP(=O)([O-])OC1CC[N+](C)(C)CC1` [Perifosine] + C[C@]1(O)C[C@@H](c2nc(-c3ccc4ccc(-c5ccccc5)nc4c3)c3c(N)nccn32)C1 [OSI906] (partner dose 2 µM), 77.8%. The result for `Cn1sc(=O)n(Cc2ccccc2)c1=O` + Cn1cc(/C=C2\C(=O)Nc3cccnc32)c2ccccc21 [GW441756] (partner dose 2 µM) reads 80.2%; that for `CCCCCCCCCCCCCCCCCCOP(=O)([O-])OC1CC[N+](C)(C)CC1` [Perifosine] + O=C(O)C(=O)Nc1sc2c(c1C(=O)O)CCNC2 [TCS401] (partner dose 8.33333 µM), 97.5%; that for `CCCCCCCCCCCCCCCCCCOP(=O)([O-])OC1CC[N+](C)(C)CC1` [Perifosine] + NCC(=O)Nc1ccc(-n2nc(C(F)(F)F)cc2-c2ccc3c(ccc4ccccc43)c2)cc1 [OSU03012] (partner dose 5 µM), 71.5%. Turning to `Cn1sc(=O)n(Cc2ccccc2)c1=O` + CN1CCN(c2ccc3nc(-c4c(N)c5c(F)cccc5[nH]c4=O)[nH]c3c2)CC1 [Dovitinib] (partner dose 0.5 µM), the cell count turned out to be 40.9%. Take `Cn1sc(=O)n(Cc2ccccc2)c1=O` + COC(=O)c1sccc1S(=O)(=O)Nc1ccc(Nc2ccccc2)cc1OC [GSK0660] (partner dose 5 µM): the cell count was found to be 108%. `Cn1sc(=O)n(Cc2ccccc2)c1=O` + N#Cc1c(O)c2c(-c3ccc(-c4ccccc4O)cc3)csc2[nH]c1=O [A769662] (partner dose 10 µM) yielded a cell count of 92.9%.

The compound `C[C@@H](N)c1ccc(C(=O)Nc2ccnc3[nH]ccc23)cc1` + Cc1cc(Nc2cc(N3CCN(C)CC3)nc(/C=C/c3ccccc3)n2)n[nH]1 [ENMD2076] (partner dose 0.2 µM) had a cell count of 51.4%.
